According to PubChem BioAssay AID624170 (National Center for Advancing Translational Sciences (NCATS), 2012):
Hit rate of the full screen: of about 410,000 compounds, about 850 (0.21%) were called active. The inconclusive results got no clear call from the source; some entries with a clear call stand among them for comparison. The call rests on the fitted dose curve; in most records, active means well fitted inhibition curve with a large enough effect; inconclusive means small, poorly fitted or top-dose-only effect, or another doubt; inactive means no such curve, though single readings can be large or run the other way. No potency is given beside an inconclusive call; the fits are too rough.

Target: Glutaminase kidney isoform, mitochondrial (Homo sapiens) (UniProt O94925)
Chain of UniProt O94925 (O94925 whole entry, looked up, canonical isoform): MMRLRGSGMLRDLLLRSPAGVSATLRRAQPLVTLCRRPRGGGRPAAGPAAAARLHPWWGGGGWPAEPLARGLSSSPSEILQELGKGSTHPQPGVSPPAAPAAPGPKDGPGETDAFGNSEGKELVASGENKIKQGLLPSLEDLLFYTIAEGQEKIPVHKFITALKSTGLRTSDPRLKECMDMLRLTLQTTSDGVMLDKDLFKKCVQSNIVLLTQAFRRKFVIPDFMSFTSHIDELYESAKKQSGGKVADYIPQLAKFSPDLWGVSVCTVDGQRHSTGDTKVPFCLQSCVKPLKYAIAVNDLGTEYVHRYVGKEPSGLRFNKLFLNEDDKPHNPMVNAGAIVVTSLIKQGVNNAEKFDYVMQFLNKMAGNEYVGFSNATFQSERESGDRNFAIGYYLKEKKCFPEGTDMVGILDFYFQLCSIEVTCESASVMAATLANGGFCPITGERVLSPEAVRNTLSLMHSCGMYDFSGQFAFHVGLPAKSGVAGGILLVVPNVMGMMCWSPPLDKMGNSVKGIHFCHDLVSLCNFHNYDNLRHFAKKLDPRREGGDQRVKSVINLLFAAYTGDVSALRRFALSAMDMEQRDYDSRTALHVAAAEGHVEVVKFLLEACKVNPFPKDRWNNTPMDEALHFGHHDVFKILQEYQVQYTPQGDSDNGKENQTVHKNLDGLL
Assay: qHTS for Inhibitors of Glutaminase (GLS)
Settings: GLS enzymatic activity, qHTS titration; series mostly up to 45.5 µM
Outline: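 hKGA in 45 mM KH2PO4 pH 8.2, 0.02% Tween-20 with pin-transferred compounds; 1 mM L-glutamine (stock) plus glutamate oxidase/HRP/Amplex Red coupling added. Fluorescence read initially and after 30 min at RT.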
Potency means the concentration at half of the fitted maximal effect; tags describe the fitted curve by direction and shape.

SMILES | Potency
O=C(O)CCC(NC(=S)Nc1ccccc1)C(=O)O (stereo not drawn) | inconclusive [inhibitor, single point]
O=C(CCC1N=C2c3ccccc3N=C(SCC(=O)NCC3CCCO3)N2C1=O)NCc1ccc(F)cc1 (stereo not drawn) | inconclusive [inhibitor, single point]
Cc1ccccc1-n1nc(CO)c(C(=O)NCc2cccs2)n1 | inactive
CC(C)Cn1c(N)c(C(=O)COC(=O)Cc2cccs2)c(=O)n(C)c1=O | inconclusive [inhibitor, single point]
Cc1nnsc1-c1nc2ccccc2[nH]1 | inactive
O=C(O)CSc1cc(NS(=O)(=O)c2ccc(Br)cc2)c2ccccc2c1O | inconclusive [inhibitor, single point]
CCOc1cc(CNC(=O)NC2COc3ccc(OC)cc3C2)cc(OCC)c1OCC (stereo not drawn) | inconclusive [inhibitor, single point]
COc1cccc(NC(=O)Cc2ccccc2)c1 | inactive
Cc1ccc2scc(CN3CCCC3)c2c1 | inactive
CCOC(=O)C1CCN(c2cc3c(cc2NC(=O)c2ccccc2F)n(C)c(=O)n3C)CC1 | inconclusive [inhibitor, single point]
O=C(O)c1ccc(/C=N/n2c(C3CCCCC3)n[nH]c2=S)cc1 | inconclusive [inhibitor, partial curve, poor fit]
COc1ccc(NC2=Nc3ccccc3N3C2=Nc2c(c(C)nn2-c2ccc(C)cc2)C3c2cccnc2)cc1 (stereo not drawn) | inactive
COc1ccc2nc(C)cc(Nc3ccccc3O)c2c1 | inconclusive [inhibitor, single point]
Cc1ccc(NC(=O)CCS(=O)(=O)c2ccc(Br)cc2)nc1 | inconclusive [inhibitor, single point]
c1ccc(CN(Cc2ccco2)C(c2ccncc2)c2nnnn2C2CCCC2)cc1 (stereo not drawn) | inconclusive [inhibitor, single point]
O=C(O)C(C(=O)/C=C/c1ccco1)=C1SCCS1 | inconclusive [inhibitor, single point]
COc1ccc(C(N)c2csc(Nc3nncc4ccccc34)n2)cc1 (stereo not drawn) | inconclusive [inhibitor, partial curve, poor fit]
COc1cc(C2c3cc(O)c(OC)cc3CC(C(=O)O)C2CO)ccc1O (stereo not drawn) | inconclusive [inhibitor, partial curve]
Cn1c(=O)[nH]c(=O)c2c1[nH]c(=S)n2Cc1ccccc1 | inconclusive [inhibitor, single point]
COc1ccc(-c2cn3cc(C(=O)NN)ccc3n2)cc1 | inconclusive [inhibitor, partial curve]
COCCNC(=O)C1CCC(Cn2c(=S)[nH]c3ccccc3c2=O)CC1 (stereo not drawn) | inconclusive [inhibitor, partial curve, poor fit]
CC1(C)CC(=O)C(=Cc2cn(-c3ccccc3)nc2-c2ccccc2)C(=O)C1 | inconclusive [inhibitor, single point]

SMILES | Potency
C[C@]12CC[C@H]3c4ccc(O)cc4CC[C@@H]3[C@H]1CC[C@@H]2OP(=O)(O)O | inconclusive [inhibitor, partial curve, poor fit]
CC(NC(=O)CN(c1ccc(Cl)cc1Cl)S(=O)(=O)c1ccccc1)c1ccccc1 (stereo not drawn) | inactive
CN(C(=O)CSC1=Nc2ccccc2C2=NC(c3ccccc3)C(=O)N12)C1CCCCC1 (stereo not drawn) | inconclusive [inhibitor, single point]
COc1ccc(C(C(=O)NC2CCCC2)N2CCc3ccccc32)cc1 (stereo not drawn) | inactive
O=c1[nH]c(-[n+]2ccccc2)c(/C=N/NC([S-])=Nc2ccccc2)s1 | inconclusive [inhibitor, single point]
Cc1cc(C(F)(F)F)c2c(n1)sc1c(O)cc(=O)[nH]c12 | inactive
CC(=O)Nc1ccc(NC(=O)CSc2nc3ccccc3nc2N2CCC(C)CC2)cc1 | inconclusive [inhibitor, single point]
C=C(C)C(=O)NNc1ccccc1 | inactive
CC(C)C[C@H]1CNC(=O)C(=O)N1CC1CCN(CCC(C)(C)C)CC1 | inactive
Cc1ccc(/C=C/C(=O)c2ccccc2O)cc1 | inactive
CCOCC(=O)Nc1cc(S(=O)(=O)N2CCOCC2)ccc1N1CCCCC1 | inconclusive [inhibitor, single point]
O=C(Nc1ccc(S(=O)(=O)Nc2ncccn2)cc1)c1ccc2ncsc2c1 | inconclusive [inhibitor, partial curve]
O=C(OCc1cc(=O)n2ccsc2n1)c1ccccc1NCCO | inconclusive [inhibitor, partial curve, poor fit]
Cc1cc2nc(/C(C#N)=C\c3ccc(-c4ccccc4C(=O)O)o3)[nH]c2cc1C | inconclusive [inhibitor, single point]
O=C(NCc1ccc(F)cc1)c1ccc2c(O)c(S(=O)(=O)c3ccccc3)c(=O)[nH]c2c1 | inconclusive [inhibitor, partial curve, poor fit]
CCN(C(=O)COC(=O)c1cc(-c2ccccc2)nc2c1c(C)nn2-c1ccc(C)cc1)C1CCS(=O)(=O)C1 (stereo not drawn) | inconclusive [inhibitor, single point]
COc1ccccc1NS(=O)(=O)c1ccc2[nH]c(=S)oc2c1 | inconclusive [inhibitor, single point]
CC(=O)c1cccc(-c2ccnc3c2CC(C(=O)Nc2ccc(C(C)C)cc2)O3)c1 (stereo not drawn) | inactive
COc1cc(-c2nc3ccc(N4CCN(C)CC4)cc3[nH]2)cc(OC)c1OC | inconclusive [inhibitor, partial curve, poor fit]
O=S(=O)(c1ccc(NC(=S)N/N=C/c2ccc(Oc3ccccc3)cc2)cc1)N1CCOCC1 | inactive
COc1ccc(N2C(=O)c3ccc(C(=O)OC(C)C)cc3C2=O)cc1 | inconclusive [inhibitor, single point]
